Test results taken from the supplement of paper PMC4967469.
Lines with a small IC50 respond at low doses; fits outside the tested doses are given as limits. AUC is the area under the same curve over the 256-fold range up to the top dose, as a fraction: 1 means no effect, lower means more sensitive. For some assays here: The top dose, if marked as inferred, is not printed in the source and was worked back from the curve model.

Assays:
Assay in all cases: Viability of human cancer cell lines after 72 h of drug (GDSC screen)
[1] = compound: COC1=CC(c2cc3ccccc3[nH]2)=N/C1=C\c1[nH]c(C)cc1C [Obatoclax mesylate]; conditions: top dose 16 µM
Description: (§1)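 Human cancer cell lines in 384-well plates, medium with 10% serum, drug for 72 h over a 256-fold dose range (nine 2-fold or five 4-fold steps up to the top dose). Adherent lines were fixed and stained with the nucleic acid dye Syto60, suspension lines read with resazurin; signal relative to control wells, capped at 0 and 100%. One two-parameter sigmoid per drug and line, fitted in a mixed model over all curves with the slope shared within a line.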

[2] = compound: COCC(=O)NC/C=C/c1ccc2ncnc(Nc3ccc(Oc4ccc(C)nc4)c(C)c3)c2c1 [CP724714]; conditions: top dose 10.24 µM; top dose inferred
Description: as §1

[3] = compound: Cc1cccc(Nc2nc(-c3ccncc3)cs2)c1 [STF-62247]; conditions: top dose 10.24 µM; top dose inferred
Description: as §1

[4] = compound: Cc1cnc(CNC(=O)c2c(=O)c3ccc(N4CCCN(C)CC4)nc3n3c2sc2ccccc23)cn1 [CX-5461]; conditions: top dose 10.24 µM; top dose inferred
Description: as §1

Cell Line	AUC [1]	IC50 [1] [µM]	AUC [2]	IC50 [2] [µM]	AUC [3]	IC50 [3] [µM]	AUC [4]	IC50 [4] [µM]
BFTC-905 (bladder, adherent)	0.154	0.108	0.986	> 10.2	0.99	> 10.2	0.916	> 10.2
BFTC-909 (kidney, adherent)	0.392	0.509	0.979	> 10.2	0.986	> 10.2	0.988	> 10.2
BHT-101 (thyroid, adherent)	0.056	< 0.0625	0.973	> 10.2	0.9	> 10.2	0.939	> 10.2
BHY (head and neck, adherent)	0.033	< 0.0625	0.97	> 10.2	0.979	> 10.2	0.778	4.17
BICR10 (head and neck, adherent)	0.644	2.66	0.985	> 10.2	0.985	> 10.2	0.985	> 10.2
BICR22 (head and neck, adherent)	0.546	1.36	0.97	> 10.2	0.982	> 10.2	0.981	> 10.2
BICR31 (head and neck, adherent)	0.365	0.421	0.979	> 10.2	0.988	> 10.2	0.988	> 10.2
BICR78 (head and neck, adherent)	0.443	0.683	0.971	> 10.2	0.983	> 10.2	0.966	> 10.2
BPH-1 (prostate, adherent)	0.461	0.774	0.837	7.92	0.958	> 10.2	0.779	4.64
BT-20 (breast, adherent)	0.679	3.61	0.976	> 10.2	0.982	> 10.2	0.979	> 10.2
BT-483 (breast, adherent)	0.641	3.49	0.921	> 10.2	0.977	> 10.2	0.891	> 10.2
BxPC-3 (pancreas, adherent)	0.187	0.0999	0.984	> 10.2	0.983	> 10.2	0.948	> 10.2
C3A (liver, adherent)	0.267	0.209	0.988	> 10.2	0.987	> 10.2	0.988	> 10.2
C32 (melanoma, adherent)	0.421	0.598	0.987	> 10.2	0.982	> 10.2	0.987	> 10.2
C-4-I (cervix, adherent)	0.448	0.711	0.976	> 10.2	0.983	> 10.2	0.986	> 10.2
C-33-A (cervix, adherent)	0.044	< 0.0625	0.924	> 10.2	0.946	> 10.2	0.786	4.42
